Assay results: PubChem BioAssay (Tox21)
Where “and” joins values, the source holds several entries; their conditions need not be identical. Equal entries are not always repeated. This list was built around the results that the source calls inconclusive (neither active nor inactive); the mix of calls is not that of the screen. For some assays here: Potencies of inconclusive entries are doubtful fits and often do not repeat. Calls of active or inactive are those of the source. Calls come from the whole dose curve; as a rule, active = well fitted curve in the direction sought with a large enough effect in the repeat runs; inconclusive = weak or mixed curves; inactive = no such curve, though single readings can be large; an effect the other way counts as inactive or inconclusive.

Columns and labels:
[1] = qHTS RealTime-Glo MT Cell Viability Assay in HEK293 cells - 24 hour (AID 1224886); note: nearly all actives have a fitted effect of over 50% in size; note: potency is the fitted concentration of half-maximal effect
Summary of the method: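 Luminescence generated by NanoLuc from substrate produced by living HEK293 cells served as the viability signal. Each value reflects the reading at its stated time point during continuous 40 h compound exposure at 37 C.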

[2] = qHTS RealTime-Glo MT Cell Viability Assay in HEK293 cells - 8 hour (AID 1224887); note: nearly all actives have a fitted effect of over 50% in size; note: potency is the fitted concentration of half-maximal effect
Summary of the method: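 Luminescence, which tracks viable cell number through reduction of the prosubstrate to a NanoLuc substrate, was read over continuous 37 C culture. Cells (600/well) were premixed with reagent and rested 5 h before 23 nL of compound in DMSO was pinned.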

[3] = qHTS assay to identify small molecule antagonists of the androgen receptor (AR) signaling pathway using the MDA cell line in the presence of 0.5 nM R1881 - cell viability counter screen (AID 1259242); note: nearly all actives have a fitted effect of over 45% in size; note: potency is the fitted concentration of half-maximal effect
Summary of the method: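 Live-cell protease activity was measured by CellTiter-Fluor fluorescence after 30 min. Before that, MDA-kb2 MMTV-luciferase cells had 16 hr at 37C without CO2, exposed to test compounds and 0.5 nM R1881 final.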

[4] = qHTS assay to identify small molecule antagonists of the estrogen receptor alpha (ER-alpha) signaling pathway using the BG1 cell line in the presence of 0.1 nM 17-beta-estradiol - cell viability counter screen (AID 1259241); note: nearly all actives have a fitted effect of over 40% in size; note: potency is the fitted concentration of half-maximal effect
Summary of the method: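 Viability in VM7Luc4E2 cells after 22 hr compound exposure under 0.1 nM 17beta-estradiol stimulation, by CellTiter-Fluor.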

[5] = molecular target: Androgen receptor (Homo sapiens) (UniProt P10275); assay: qHTS assay to identify small molecule antagonists of the androgen receptor (AR) signaling pathway using the MDA cell line in the presence of 0.5 nM R1881 (AID 1259243); note: potency is the fitted concentration of half-maximal effect; nearly all actives have a fitted effect of over 50% in size
UniProt P10275, sequence (P10275 whole entry, looked up): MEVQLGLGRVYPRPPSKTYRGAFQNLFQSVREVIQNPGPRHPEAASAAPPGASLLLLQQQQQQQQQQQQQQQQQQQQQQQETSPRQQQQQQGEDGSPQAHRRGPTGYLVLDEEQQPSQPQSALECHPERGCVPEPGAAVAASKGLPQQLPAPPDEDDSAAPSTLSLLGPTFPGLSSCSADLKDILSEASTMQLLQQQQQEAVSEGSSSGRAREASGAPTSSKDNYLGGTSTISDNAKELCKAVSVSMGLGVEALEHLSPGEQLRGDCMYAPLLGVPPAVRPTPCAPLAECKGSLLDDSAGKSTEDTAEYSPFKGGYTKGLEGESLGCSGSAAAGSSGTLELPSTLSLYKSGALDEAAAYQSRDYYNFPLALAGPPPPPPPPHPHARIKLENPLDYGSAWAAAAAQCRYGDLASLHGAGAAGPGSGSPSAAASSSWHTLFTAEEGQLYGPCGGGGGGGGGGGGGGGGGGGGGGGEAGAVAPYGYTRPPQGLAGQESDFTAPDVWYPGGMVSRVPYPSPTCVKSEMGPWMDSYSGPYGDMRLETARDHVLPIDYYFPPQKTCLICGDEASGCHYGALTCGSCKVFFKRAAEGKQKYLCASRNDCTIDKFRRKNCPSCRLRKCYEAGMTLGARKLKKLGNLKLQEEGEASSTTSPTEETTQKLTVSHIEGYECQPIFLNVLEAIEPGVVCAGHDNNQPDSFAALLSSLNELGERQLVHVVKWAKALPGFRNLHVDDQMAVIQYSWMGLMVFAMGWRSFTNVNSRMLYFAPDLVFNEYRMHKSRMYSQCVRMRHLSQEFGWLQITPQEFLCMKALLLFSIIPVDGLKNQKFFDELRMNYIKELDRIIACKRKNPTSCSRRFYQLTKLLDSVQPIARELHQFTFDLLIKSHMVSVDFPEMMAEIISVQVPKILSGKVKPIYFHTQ
Summary of the method: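 Luminescent reporter readout (ONE-Glo, 30 min, room temperature) after 16 hr co-treatment of MDA-kb2 cells with test compounds and 0.5 nM R1881 final, at 37C without CO2. The MMTV-driven luciferase responds to both AR and GR.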

[6] = A CellTox Green Cytotoxicity Assay to monitor cytotoxicity in HEK293 cells - 16 hour (AID 1224888); note: nearly all actives have a fitted effect of over 35% in size
Summary of the method: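 Fluorescence from a DNA-binding dye excluded by viable cells was measured repeatedly in the same HEK293 wells (600 cells/well) during continuous compound exposure at 37 C. Each assay gives one read point: 0, 8, 16, 24, 32 or 40 h.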
Tags give direction and shape of the fitted curve.

Question: Which Potency [1] does the source give for `CCCCCCCCCCCCN=C(N)N` here?
Answer: inconclusive: 1.2 µM [cytotoxic, partial curve]

Question: What about the Potency [2] of the same compound?
Answer: inconclusive: 1.52 µM [cytotoxic, partial curve, poor fit]

Question: Which results are given for `CN/C(=N\[N+](=O)[O-])NCC1CCOC1` (stereo not given)?
Answer: Potency [1]: inactive; Potency [3]: inactive

Question: With `N#Cc1cc(I)c(O)c(I)c1` as the compound, how does the Potency [1] read?
Answer: inconclusive: 61.6 µM [cytotoxic, single point]

Question: What about the Potency [4] of the same compound?
Answer: inconclusive: 27.3 µM [cytotoxic, partial curve, poor fit]

Question: What about the Potency [3] of the same compound?
Answer: inconclusive: 68.6 µM [cytotoxic, single point]

Question: Which results are given for `BrCC(Br)C1CCC(Br)C(Br)C1` (stereo not given)?
Answer: Potency [1]: inconclusive: 43.4 µM [cytotoxic, partial curve, poor fit]; Potency [2]: inconclusive: 48.8 µM [cytotoxic, partial curve]; Potency [5]: inconclusive: 10.8 µM [inhibitor, full curve]

Question: Which Potency [1] does the source give for `CCCCN(CC)C(=O)SCCC` here?
Answer: inconclusive: 21.9 µM [cytotoxic, full curve]

Question: What about the Potency [2] of the same compound?
Answer: inconclusive: 24.5 µM [cytotoxic, full curve]

Question: For `CCCCP(CCCC)CCCC`, which Potency [2] is on record?
Answer: inactive

Question: For `CCOc1cc(Oc2ccc(C(F)(F)F)cc2Cl)ccc1[N+](=O)[O-]`, which Potency [1] is on record?
Answer: inconclusive: 39.3 µM [cytotoxic, partial curve] and inconclusive: 12.3 µM [cytotoxic, full curve]

Question: And the Potency [6]?
Answer: inactive

Question: With `O=C(O)C(Cl)Br` (stereo not given) as the compound, how does the Potency [1] read?
Answer: inconclusive: 24.8 µM [cytotoxic, single point]

Question: What about the Potency [4] of the same compound?
Answer: inactive

Question: For `O=c1[nH]c2ccccc2n1CCCN1CCC(n2c(=O)[nH]c3cc(Cl)ccc32)CC1`, which Potency [1] is on record?
Answer: active: 9.52 µM

Question: And the Potency [2]?
Answer: active: 9.52 µM

Question: And the Potency [6]?
Answer: inactive
